According to patent US20250382386A1 (KINTOR PHARMACEUTICAL GUANGDONG, published 2025):

B1: BEV813-1 (bispecific antibody, human IgG1, kappa)
heavy: EVQLVESGGGLVQPGGSLRLSCAASGYTFTNYGMNWVRQAPGKGLEWVGWINTYTGEPTYAADFKRRFTFSLDTSKSTAYLQMNSLRAEDTAVYYCAKYPHYYGSSHWYFDVWGQGTLVTVSSASTKGPSVFPLAPSSKSTSGGTAALGCLVKDYFPEPVTVSWNSGALTSGVHTFPAVLQSSGLYSLSSVVTVPSSSLGTQTYICNVNHKPSNTKVDKKV[here human IgG1 Fc with changes without letters]GGGGSGGGGSGGGGSGGGGSQVQLQESGPGLVKPSQTLSLTCTVSGGSISSGEYYWNWIRQHPGCGLEWIGYIYYSGSTYYNPSLKSRVTISVDTSKNQFSLKLSSVTAADTAVYYCARESVAGFDYWGQGTLVTVSSGGGGSGGGGSGGGGSGGGGSEIVLTQSPGTLSLSPGERATLSCRASQSVSSSYLAWYQQKPGQAPRLLIYGTSSRATGIPDRFSGSGSGTDFTLTISRLEPEDFAVYYCQAYGSWPITFGCGTRLEIK
light: DIQMTQSPSSLSASVGDRVTITCSASQDISNYLNWYQQKPGKAPKVLIYFTSSLHSGVPSRFSGSGSGTDFTLTISSLQPEDFATYYCQQYSTVPWTFGQGTKVEIKRTVAAPSVFIFPPSDEQLKSGTASVVCLLNNFYPREAKVQWKVDNALQSGNSQESVTEQDSKDSTYSLSSTLTLSKADYEKHKVYACEVTHQGLSSPVTKSFNRGEC
notes: also called BEV813-1 mutant
B2: BEV813-3 (bispecific antibody, human IgG1, kappa)
heavy: EVQLVESGGGLVQPGGSLRLSCAASGYTFTNYGMNWVRQAPGKGLEWVGWINTYTGEPTYAADFKRRFTFSLDTSKSTAYLQMNSLRAEDTAVYYCAKYPHYYGSSHWYFDVWGQGTLVTVSSASTKGPSVFPLAPSSKSTSGGTAALGCLVKDYFPEPVTVSWNSGALTSGVHTFPAVLQSSGLYSLSSVVTVPSSSLGTQTYICNVNHKPSNTKVDKKV[here human IgG1 Fc with changes without letters]GGGGSGGGGSGGGGSGGGGSQVQLQESGPGLVKPSQTLSLTCTVSGGSISSGEYYWNWIRQHPGKCLEWIGYIYYSGSTYYNPSLKSRVTISVDTSKNQFSLKLSSVTAADTAVYYCARESVAGFDYWGQGTLVTVSSGGGGSGGGGSGGGGSGGGGSEIVLTQSPGTLSLSPGERATLSCRASQSVSSSYLAWYQQKPGQAPRLLIYGTSSRATGIPDRFSGSGSGTDFTLTISRLEPEDFAVYYCQAYGSWPITFGQCTRLEIK
light: DIQMTQSPSSLSASVGDRVTITCSASQDISNYLNWYQQKPGKAPKVLIYFTSSLHSGVPSRFSGSGSGTDFTLTISSLQPEDFATYYCQQYSTVPWTFGQGTKVEIKRTVAAPSVFIFPPSDEQLKSGTASVVCLLNNFYPREAKVQWKVDNALQSGNSQESVTEQDSKDSTYSLSSTLTLSKADYEKHKVYACEVTHQGLSSPVTKSFNRGEC
B3: BEV813-5 (bispecific antibody, human IgG1, kappa)
heavy: EVQLVESGGGLVQPGGSLRLSCAASGYTFTNYGMNWVRQAPGKGLEWVGWINTYTGEPTYAADFKRRFTFSLDTSKSTAYLQMNSLRAEDTAVYYCAKYPHYYGSSHWYFDVWGQGTLVTVSSASTKGPSVFPLAPSSKSTSGGTAALGCLVKDYFPEPVTVSWNSGALTSGVHTFPAVLQSSGLYSLSSVVTVPSSSLGTQTYICNVNHKPSNTKVDKKV[here human IgG1 Fc with changes without letters]GGGGSGGGGSGGGGSGGGGSQVQLQESGPGLVKPSQTLSLTCTVSGGSISSGEYYWNWIRQHPGKGLEWIGYIYYSGSTYYNPSLKSRVTISVDTSKNQFSLKLSSVTAADTAVYYCARESVAGFDYWGCGTLVTVSSGGGGSGGGGSGGGGSGGGGSEIVLTQSPGTLSLSPGERATLSCRASQSVSSSYLAWYQQKPGQCPRLLIYGTSSRATGIPDRFSGSGSGTDFTLTISRLEPEDFAVYYCQAYGSWPITFGQGTRLEIK
light: DIQMTQSPSSLSASVGDRVTITCSASQDISNYLNWYQQKPGKAPKVLIYFTSSLHSGVPSRFSGSGSGTDFTLTISSLQPEDFATYYCQQYSTVPWTFGQGTKVEIKRTVAAPSVFIFPPSDEQLKSGTASVVCLLNNFYPREAKVQWKVDNALQSGNSQESVTEQDSKDSTYSLSSTLTLSKADYEKHKVYACEVTHQGLSSPVTKSFNRGEC
B4: BEV813-6 (bispecific antibody, human IgG1, kappa)
heavy: EVQLVESGGGLVQPGGSLRLSCAASGYTFTNYGMNWVRQAPGKGLEWVGWINTYTGEPTYAADFKRRFTFSLDTSKSTAYLQMNSLRAEDTAVYYCAKYPHYYGSSHWYFDVWGQGTLVTVSSASTKGPSVFPLAPSSKSTSGGTAALGCLVKDYFPEPVTVSWNSGALTSGVHTFPAVLQSSGLYSLSSVVTVPSSSLGTQTYICNVNHKPSNTKVDKKV[here human IgG1 Fc with changes without letters]GGGGSGGGGSGGGGSGGGGSQVQLQESGPGLVKPSQTLSLTCTVSGGSISSGEYYWNWIRQHPGKGLEWIGYIYYSGSTYYNPSLKSRVTISVDTSKNQFSLKLSSVTAADTAVYYCARESVAGFDYWGCGTLVTVSSGGGGSGGGGSGGGGSGGGGSEIVLTQSPGTLSLSPGERATLSCRASQSVSSSYLAWYQQKPGCAPRLLIYGTSSRATGIPDRFSGSGSGTDFTLTISRLEPEDFAVYYCQAYGSWPITFGQGTRLEIK
light: DIQMTQSPSSLSASVGDRVTITCSASQDISNYLNWYQQKPGKAPKVLIYFTSSLHSGVPSRFSGSGSGTDFTLTISSLQPEDFATYYCQQYSTVPWTFGQGTKVEIKRTVAAPSVFIFPPSDEQLKSGTASVVCLLNNFYPREAKVQWKVDNALQSGNSQESVTEQDSKDSTYSLSSTLTLSKADYEKHKVYACEVTHQGLSSPVTKSFNRGEC
B5: BEV813-7 (bispecific antibody, human IgG1, kappa)
heavy: EVQLVESGGGLVQPGGSLRLSCAASGYTFTNYGMNWVRQAPGKGLEWVGWINTYTGEPTYAADFKRRFTFSLDTSKSTAYLQMNSLRAEDTAVYYCAKYPHYYGSSHWYFDVWGQGTLVTVSSASTKGPSVFPLAPSSKSTSGGTAALGCLVKDYFPEPVTVSWNSGALTSGVHTFPAVLQSSGLYSLSSVVTVPSSSLGTQTYICNVNHKPSNTKVDKKV[here human IgG1 Fc with changes without letters]GGGGSGGGGSGGGGSGGGGSQVQLQESGPGLVKPSQTLSLTCTVSGGSISSGEYYWNWIRQHPGKGLEWIGYIYYSGSTYYNPSLKSRVTISVDTSKNQFSLKLSSVTAADTAVYYCARESVAGFCYWGQGTLVTVSSGGGGSGGGGSGGGGSGGGGSEIVLTQSPGTLSLSPGERATLSCRASQSVSSSYLAWYQQKPGQAPRCLIYGTSSRATGIPDRFSGSGSGTDFTLTISRLEPEDFAVYYCQAYGSWPITFGQGTRLEIK
light: DIQMTQSPSSLSASVGDRVTITCSASQDISNYLNWYQQKPGKAPKVLIYFTSSLHSGVPSRFSGSGSGTDFTLTISSLQPEDFATYYCQQYSTVPWTFGQGTKVEIKRTVAAPSVFIFPPSDEQLKSGTASVVCLLNNFYPREAKVQWKVDNALQSGNSQESVTEQDSKDSTYSLSSTLTLSKADYEKHKVYACEVTHQGLSSPVTKSFNRGEC
B6: BEV813-8 (bispecific antibody, human IgG1, kappa)
heavy: EVQLVESGGGLVQPGGSLRLSCAASGYTFTNYGMNWVRQAPGKGLEWVGWINTYTGEPTYAADFKRRFTFSLDTSKSTAYLQMNSLRAEDTAVYYCAKYPHYYGSSHWYFDVWGQGTLVTVSSASTKGPSVFPLAPSSKSTSGGTAALGCLVKDYFPEPVTVSWNSGALTSGVHTFPAVLQSSGLYSLSSVVTVPSSSLGTQTYICNVNHKPSNTKVDKKV[here human IgG1 Fc with changes without letters]GGGGSGGGGSGGGGSGGGGSQVQLQESGPGLVKPSQTLSLTCTVSGGSISSGEYYWNWIRQHPGKGLEWIGYIYYSGSTYYNPSLKSRVTISVDTSKNQFSLKLSSVTAADTAVYYCARESVAGCDYWGQGTLVTVSSGGGGSGGGGSGGGGSGGGGSEIVLTQSPGTLSLSPGERATLSCRASQSVSSSYLAWYQQKPGQAPRCLIYGTSSRATGIPDRFSGSGSGTDFTLTISRLEPEDFAVYYCQAYGSWPITFGQGTRLEIK
light: DIQMTQSPSSLSASVGDRVTITCSASQDISNYLNWYQQKPGKAPKVLIYFTSSLHSGVPSRFSGSGSGTDFTLTISSLQPEDFATYYCQQYSTVPWTFGQGTKVEIKRTVAAPSVFIFPPSDEQLKSGTASVVCLLNNFYPREAKVQWKVDNALQSGNSQESVTEQDSKDSTYSLSSTLTLSKADYEKHKVYACEVTHQGLSSPVTKSFNRGEC
B7: BEV813-9 (bispecific antibody, human IgG1, kappa)
heavy: EVQLVESGGGLVQPGGSLRLSCAASGYTFTNYGMNWVRQAPGKGLEWVGWINTYTGEPTYAADFKRRFTFSLDTSKSTAYLQMNSLRAEDTAVYYCAKYPHYYGSSHWYFDVWGQGTLVTVSSASTKGPSVFPLAPSSKSTSGGTAALGCLVKDYFPEPVTVSWNSGALTSGVHTFPAVLQSSGLYSLSSVVTVPSSSLGTQTYICNVNHKPSNTKVDKKV[here human IgG1 Fc with changes without letters]GGGGSGGGGSGGGGSGGGGSQVQLQESGPGLVKPSQTLSLTCTVSGGSISSGEYYWNWIRQHPGKGLEWIGYIYYSGSTYYNPSLKSRVTISVDTSKNQFSLKLSSVTAADTAVYYCARESVAGFDYCGQGTLVTVSSGGGGSGGGGSGGGGSGGGGSEIVLTQSPGTLSLSPGERATLSCRASQSVSSSYLAWYQQKPGQCPRLLIYGTSSRATGIPDRFSGSGSGTDFTLTISRLEPEDFAVYYCQAYGSWPITFGQGTRLEIK
light: DIQMTQSPSSLSASVGDRVTITCSASQDISNYLNWYQQKPGKAPKVLIYFTSSLHSGVPSRFSGSGSGTDFTLTISSLQPEDFATYYCQQYSTVPWTFGQGTKVEIKRTVAAPSVFIFPPSDEQLKSGTASVVCLLNNFYPREAKVQWKVDNALQSGNSQESVTEQDSKDSTYSLSSTLTLSKADYEKHKVYACEVTHQGLSSPVTKSFNRGEC
notes: also called mutant BEV813-9

biological target: T1, Human ALK-1/ACVRL1 Protein, His Tag (Acro AL1-H5227) (human, UniProt P37023 fragment); assay: BLI (Octet RED96e), antibody on ProteinA sensor, 1:1 model
T1 construct: range 22-118; Bought protein; also called ALK-1/His; ALK-1-his

Binder	Kd	koff	kon
B1	3.96 nM	0.00181 s⁻¹	456000 M⁻¹ s⁻¹
B2	7.93 nM	0.00239 s⁻¹	301000 M⁻¹ s⁻¹
B3	1.67 nM	0.0007 s⁻¹	418000 M⁻¹ s⁻¹
B4	3.5 nM	0.00142 s⁻¹	404000 M⁻¹ s⁻¹
B5	7.37 nM	0.00299 s⁻¹	406000 M⁻¹ s⁻¹
B6	2.22 nM	0.00116 s⁻¹	524000 M⁻¹ s⁻¹
B7	3.81 nM	0.00245 s⁻¹	644000 M⁻¹ s⁻¹
